Test results published in PubChem BioAssay (NCI).
Where “and” joins values, the source holds several entries; their conditions need not be identical. Equal entries are not always repeated.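 The compound was tested at five concentrations on cells cultured in 96-well plates, with a 48-hour exposure period. GI50 = concentration required for 50% inhibition of growth. The concentration for full growth arrest is given as TGI.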

system: NCI-H322M lung; assay: NCI tumour cell line growth inhibition, 48 h

Compound | TGI | GI50
O=C(NCC(C(=O)OCc1ccccc1)C(=O)OCc1ccccc1)OCc1ccccc1 | > 100 µM | –
CSC1C(=O)c2ccccc2/C(=N/Nc2nc3ccccc3s2)C1C (stereo unspecified) | > 50 µM | 20.7 µM
COc1ccc(/C=C2\CN(C)CC3C2=NC(=S)NC3c2ccc(OC)cc2)cc1 (stereo unspecified) | > 100 µM | –
COCCNC(=O)c1ccc(-c2nc3ccc4[nH]ncc4c3c3c2CCCC3)cc1 | 66.3 µM | 2.01 µM
CCN(CC)c1cccc2c1C1(O)CCC3(CC21)OCCCCO3 (stereo unspecified) | > 100 µM | –
CCN1C[C@]2(C)CC[C@H](OCc3ccccc3)C34C5C[C@@H]6CC[C@](O)(C(C[C@@H]32)C14)C5[C@H]6OCc1ccccc1 (stereo partly specified) | > 100 µM | –
CN(C)CCNC(=O)c1cc(-c2nccn2C)nc2ccccc12 | > 100 µM | –
COC(=O)CCC(C)C1CCC2C3CCC4CC5CCC4(C)C3(O5)C(Br)C(Br)C12C (stereo unspecified) | > 100 µM | –
Cc1nn(-c2nc3ccccc3[nH]2)c2c1C(c1ccc3c(c1)OCO3)CC(=O)N2 (stereo unspecified) | > 30.6 µM | 3.45 µM
O=C1c2ccccc2-c2c1c(-c1ccccc1)c1n2C2(C(=O)c3ccccc3C2=O)C2C(=O)N(c3ccccc3)C(=O)C12 (stereo unspecified) | 51.7 µM | –
CO/N=C(/C(=O)OC)c1ccccc1COc1cccc(C(F)(F)F)c1 | 72.9 µM | –
CSC(=S)OC1C(CO[Si](C)(C)C(C)(C)C)OC2OC(C)(C)OC21 (stereo unspecified) | 41.1 µM | –
Nc1ncnc2c(C3OC(CO)C(O)C3O)nsc12 (stereo unspecified) | > 100 µM | –
O=C1/C(=C/c2ccc(Cl)cc2)COc2ccc(O)c(O)c21 | 2.98 µM | 1.47 µM
COc1cc(-c2oc3c(OC)c(O)c(OC)c(O)c3c(=O)c2OC)ccc1O | > 100 µM | –
C/C(=N\NC(=S)NNC(=S)N(C)c1ccccc1)c1ccccn1 | > 100 µM | –
CC[N+]1(C)CCC(O)(/C=C/c2ccc(Cl)cc2)C(C(=O)/C=C/c2ccc(Cl)cc2)C1 (stereo unspecified) | 32 µM | –
COc1cc([C@@H]2OC(=O)C3C2C(=O)O[C@H]3c2cc(OC)c(OC)c(OC)c2)cc(OC)c1OC (stereo partly specified) | > 100 µM | –
O=C(CN1CCOCC1)Nc1ccc2c(c1)C1Oc3ccccc3CC1CO2 (stereo unspecified) | > 100 µM | –
O=C(N/N=C\c1ccc(N(CCCl)CCCl)cc1Cl)c1cccnc1 | > 100 µM | 26.1 µM
Cc1cc(C)c(NS(=O)c2cccc(Cl)c2)c(C)c1 (stereo unspecified) | > 100 µM | –
COc1ccc2c(c1)N=C1CSC(c3c(Cl)cccc3[N+](=O)[O-])N1C2 (stereo unspecified) | > 100 µM | –
NCCCCN(Cc1nc2ccccc2[nH]1)[C@H]1CCCc2cccnc21 | > 100 µM | 12.6 µM
CCOc1ccccc1NC(=O)C1=C(C)NC(C)=C(C(=O)Nc2ccccc2OCC)C1c1ccc(NC(C)=O)cc1 | > 100 µM | –

Compound | TGI | GI50
C/C1=C\CC/C(C)=C/C=C(/C(C)C)CC/C(C(=O)O)=C/CC1 | > 100 µM | –
COC(=O)C(CC(=O)Nc1ccc(Cl)c(Cl)c1)C(=O)C(=O)NC1C2CC3CC(C2)CC1C3 (stereo unspecified) | > 100 µM | –
CN(C)CCNC(=O)c1cc2c3ccccc3[nH]c2c2ncccc12 | 74.5 µM | 14.4 µM
COC(=O)CC1(O)C(/C=C/c2ccccc2)C(C(=O)OC)C(=O)C(C(=O)OC)C1C(=O)OC (stereo unspecified) | > 100 µM | –
CC(C)c1nc2c(Cl)c3ncccc3cc2[nH]c1=O | > 100 µM | –
CCN(CC)CCC(=O)c1ccc(Oc2ccccc2)cc1 | > 100 µM | –
OCCNCCNc1c2ccccc2nc2oc3ccccc3c12 | > 100 µM | 19.4 µM
CC(=O)OCC1OC(n2c(C)c(C(C)=O)c(-c3cccc4ccccc34)c(C#N)c2=S)C(OC(C)=O)C(OC(C)=O)C1OC(C)=O (stereo unspecified) | > 100 µM | –
S=C(Nc1ccccc1)N(Cc1ccccc1)c1ccccc1 | > 100 µM | –
CNc1nc(N(C)C)nc(N(C)C)n1 | > 100 µM and 4290 µM | > 100 µM and 1530 µM
O=C(Cc1ccccc1)NNc1nc(NNC(=O)c2ccncc2)nc(Nc2ccc(Cl)cc2)n1 | > 10 µM | –
CS/C(c1ccccc1)=[N+](/C)[O-] | > 100 µM | –
C=C1CC[C@@H]2[C@](C)(COC(C)=O)[C@H](OC(C)=O)CC[C@@]2(C)[C@@H]1C/C=C1/C(=O)OC[C@H]1OC(C)=O | 29.7 µM | 16 µM
CN(C)c1ccc(N=Nc2cccc3ncccc23)cc1 | > 100 µM | –
[C-]#[N+]C(C)(C)C[C@H]1CC(C)C2CCC(C)C3([N+]#[C-])CCC(=C)C1[C@H]23 (stereo partly specified) | 37.8 µM | –
COC(=O)/C=C(/C(=O)OC)c1c(C)cc2c(C)cc(C)cc(C)c1-2 | > 100 µM | –
Cc1ccc(C2=C(c3ccccc3)C(Br)(c3ccccc3)C(c3ccccc3)=C2c2ccc(C)cc2)cc1 | > 100 µM | –
N#CC1=C(N)Oc2c(sc3c(F)cccc23)C1c1ccc(F)cc1 (stereo unspecified) | 18.7 µM | 2.87 µM
O=C(CN1C(=O)c2ccccc2C1=O)C(O)CN1C(=O)c2ccccc2C1=O (stereo unspecified) | > 100 µM | –
COc1cc(/C=C2\CC3C4CC[C@H]5C[C@@H](O)CC[C@]5(C)C4CC[C@]3(C)C2=O)cc(OC)c1OC (stereo partly specified) | > 100 µM | –
CC12CC3CC(C1)CC(N=[N+]=[N-])(C3)C2 | > 100 µM | –
Nc1ccccc1OCc1cc(=O)c(OCc2ccccc2)co1 | > 100 µM | –
CCSC(=O)/C=C1\CN(C(=O)OC(C)(C)C)C1C(=O)OC(C)(C)C (stereo unspecified) | 23.1 µM | –
O=C(N/C(=C\c1ccc(Oc2ccc(Cl)c(Cl)c2)cc1)c1nc2ccccc2[nH]1)c1ccccc1 | 47.1 µM | –

Compound | TGI | GI50
CC1=NN(C(=O)c2ccccc2O)C(c2ccccc2Cl)C1C(=O)Nc1ccccc1 (stereo unspecified) | > 100 µM | –
C/C(=C\CC[C@]1(C)OC(C)(C)OC1CC/C(C)=C/CO[Si](c1ccccc1)(c1ccccc1)C(C)(C)C)CC/C=C/CO[Si](C)(C)C(C)(C)C (stereo partly specified) | > 100 µM | –
Cc1ccc(S(=O)(=O)c2c3[nH]c4ccccc4nc3n3c2nc2ccccc23)cc1 | > 100 µM | –
Cc1nn(C(=O)Cc2ccccc2)c2c1C(c1ccccc1[N+](=O)[O-])SC(N)=N2 (stereo unspecified) | > 100 µM | –
CCCCCN(CCCCC)CC(O)c1cc2c(c3ccccc13)CCCC2 (stereo unspecified) | 23.4 µM and 29.5 µM | 10.7 µM and 12.4 µM
[C-]#[N+]C1(C(=O)OCC)CC1 | > 100 µM | –
COC(=O)C1(C)CCCC2(C)C3CCC4CC3(C=C4CO)CCC12 (stereo unspecified) | > 100 µM | –
Clc1ccccc1-c1nnc2c(-c3ccccc3)nc3ccccc3n12 | > 100 µM | –
C/C(=N\O)C(CN1CCCCC1)C(c1ccccc1)c1c(O)c2ccccc2oc1=O (stereo unspecified) | > 100 µM | –
O=C(/C=C(\O)c1ccc(Cl)cc1)C(=O)NN=C(c1ccccc1)c1ccccc1 | > 100 µM | –
CCCCCCCCCCCC[n+]1ccc(C(N)=O)cc1 | 26.6 µM | 11.8 µM
COc1ccccc1/C=N/N=C(\N)NO | > 100 µM | –
O=C1CCc2cc3c(cc21)CC1(Cc2cc4c(cc2C1)CCCC4)C3 | > 100 µM | –
C[CH2][Sn]([CH2]C)([O]C(=O)c1cccc(F)c1)[O][Sn]([CH2]C)([CH2]C)[O]C(=O)c1cccc(F)c1 | > 100 µM | 40.7 µM
Cc1cccc2c1C(=O)OC2(C)c1cccc2ccccc12 (stereo unspecified) | > 100 µM | –
CN(C)/C=C/c1nnnn1-c1ccc(I)cc1 | 71.4 µM | –
O=CC1C[C@@H](N2C(=O)O[C@@H](c3ccccc3)[C@H]2c2ccccc2)[C@@H]1COCc1ccccc1 (stereo partly specified) | 39.9 µM | –
Clc1ccc(-c2nc3ccc(C45CC6CC(CC(C6)C4)C5)cc3[nH]2)cc1 | > 100 µM | –
CC1=NN(C(=O)c2ccc(Cl)cc2)C(=O)/C1=C/c1ccc(O)cc1 | > 100 µM | –
N=C(N)c1ccc(-c2ccc(-c3cccs3)s2)nc1 | 0.971 µM | 0.132 µM
CCCCCCCCCC1CC(=O)NCC(=O)NC(C(C)C)C(=O)NC(CC(C)C)C(=O)NC(C)C(=O)NC(C(C)C)C(=O)O1 (stereo unspecified) | 73.5 µM | –
O=C(n1c(=O)n(-c2ccc(Cl)cc2)c(=O)n1C(=O)C(Cl)(Cl)Cl)C(Cl)(Cl)Cl | > 100 µM | –
Cc1ccc(CCCCCOc2ccc(C3=NCCO3)cc2)s1 | > 100 µM | –
